# Laboratory results from the supplement of paper PMC11417369.
# ± gives the standard deviation of the averaged measurements. This is one part of the list.
# Tested on: PfAP2-LT AP2 domain (GST-tagged)
# Test: gcPBM binding intensity (ln(normalized median fluorescence intensity)); higher = stronger DNA binding
# In short: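 GST-fused DNA-binding domains of P. falciparum, expressed in E. coli, were applied at about 25 μg on average for 1 h to an Agilent 4 × 180k array of primer-extended double-stranded 36-bp intergenic genomic probes and negative controls. Binding intensity is the highest Masliner-normalised natural-log median intensity across replicate spots of either probe orientation, measured with Alexa488 anti-GST antibody and a 488 nm scan.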
row,Sequence,gcPBM binding intensity (ln)
1,ATGCTTTTTAAATGATTGCACTAGATTGTAATATGT [GTGCAC_site9666],8.84 ± 0.35
2,ATATATATATATTGCACACACAATTATTATTATTAT [CACACA_site2299],9.41 ± 0.3
3,TGTGCTATATTCATATGTACATATAATTATTATATA [XGTACX_site3549],8.76 ± 0.42
4,ATAAAATAAAAGTGTACACAAGAAAATATGTTATGT [CACACA_site6033],9.34 ± 0.44
5,AAAAATTACCTGACTTGTACATAATTTAAGAACAAT [XGTACX_site6233],8.72 ± 0.27
6,GGTATATTAAAATAGGTGCATAAAACTAAGAGAAAA [GTGCAC_site9781],8.9 ± 0.49
7,ACGTTTGATACACATAAAGTTTTCCTTTGAATGTAC [CACACA_negctrl_site106],8.86 ± 0.45
8,ATAATATATTTATAATGTACATAAGAACAAATTAAA [XGTACX_site1745],8.7 ± 0.43
9,AATAATACACAATTTTGTACGTATTTAAAATATATT [XGTACX_site45],8.73 ± 0.44
10,AATTAAAAACATTTCACACATAAAAATGAAATATAT [CACACA_site5199],8.68 ± 0.45
11,TATTTATGAGAAATAGTGCAAAGATATGATCTTTAA,8.5 ± 0.45
12,TAAAATATATAATAATGTACATATTTTTATTTAGGA [XGTACX_site4987],8.41 ± 0.55
13,AAATTATAATATAATACACACATAAAAAAAAAATCA [CACACA_site3634],9 ± 0.44
14,TATATATATATATATTGTACACATATATATTTACGA [XGTACX_site4791],9.21 ± 0.38
15,TGATTCTTTTGTATCACACACACTTAGTTTAATTTT [CACACA_site2404],9.24 ± 0.62
16,ATAATAAAAATAAGAGAATAAAAATGCAATTTAATG [CACACA_negctrl_site878],8.76 ± 0.48
17,TCCTTTATTTTTAAATGTACAAATATTATCTCCTCA [XGTACX_site5856],8.58 ± 0.51
18,ACTTGACACGGACACACACACATATATAAAAAAAAA [CACACA_site4576],9.53 ± 0.51
19,TTTTTTTATTATCATGCACACATTTTTTTTTTTTAC [CACACA_site2253],9.14 ± 0.43

row,Sequence,gcPBM binding intensity (ln)
1,AACTCACATAAATTCACACAAATGTATATTCATATA [CACACA_site4554],8.73 ± 0.38
2,ATTGATCGGATAAAATGTACAAATATATATATATAT [XGTACX_site7345],9.34 ± 0.23
3,ATTTATAATGTGTATACACACATATATAGATTTGCT [CACACA_site6440],9.12 ± 0.36
4,TCTTTTTTTATTTTATTTTTTTTTTTTAAATAATTC [TGCATGCA_negctrl_site372],8.39 ± 0.47
5,CATATTAATATTATGGGTACATATAAATTTACATTC [XGTACX_site687],8.7 ± 0.46
6,AAAACATAAATACATACACACATAATATATATTAAT [CACACA_site109],9.32 ± 0.38
7,ATTATAATATTGTTATGTACATAAAAATTATTGAAT [XGTACX_site4476],8.81 ± 0.35
8,AAAAAATAATAAATCACACATATTATATATATATAT [CACACA_site5838],8.94 ± 0.25
9,AACATGAAAGATAGCAAAAAAAAAAAAAAAAAAAAA [TGCATGCA_negctrl_site607],8.37 ± 0.3
10,TTGAAGTGTACTATTTTATATATATATATACATTTT [CACACA_negctrl_site224],9.1 ± 0.48
11,TAGAAATATATTTATTGTACATTGTATATATTATAT [XGTACX_site7584],8.64 ± 0.38
12,TAATGTTCCTATATAGTGCAATTATGTTTTATTTCT,8.88 ± 0.45
13,TACGATGTTTTAAAATGTACATAAAAGTCACATAAG [XGTACX_site3297],8.54 ± 0.45
14,TTTTAATTTTTAAGACGTACTATCATTTGATAATAA [XGTACX_site3942],8.26 ± 0.47
15,ATTATGTGCCAATACACACACACATCTATATTTATA [CACACA_site6359],9.67 ± 0.18
16,TCTTTTTTTTTTACTAGTACTTAAAAAAAAAATATG [XGTACX_site4395],8.28 ± 0.55
17,TATTTATAAATATACGCACACATTAATATATATATA [CACACA_site3969],8.98 ± 0.42
18,AGTATGTAAATGTGCCATATATATATTAAATACATA [CACACA_negctrl_site14],8.86 ± 0.42
19,GTTGGTAGGCGGTACGGTACACGTAGTATTTTTCTT [XGTACX_site4213],8.95 ± 0.49

row,Sequence,gcPBM binding intensity (ln)
1,ATATTATTTATTTTTAAATTATATTGATTATTTTTT [CACACA_negctrl_site451],8.44 ± 0.63
2,TTTTTTTCATATATATGTACATAATTATATATGCAT [XGTACX_site3257],8.9 ± 0.45
3,TTTAAAAATATTTCACGTACGCATTTTAAAAAGTAT [XGTACX_site8026],8.52 ± 0.39
4,AAATAGTAAGAGATGGTGCGTTTCCTTTTTTTTTTT [GTGCAC_site9663],8.82 ± 0.4
5,CGTGGGAGCAGACACACACACACACCCATATATATA [CACACA_site334],9.99 ± 0.5
6,TTAATTATATGGTAAACAAATAAATGTGAAAGGAAA [XGTACX_negctrl_site389],8.75 ± 0.45
7,TATATACGCATGCGCACACACAAGTGGGAAATTTGG [CACACA_site1785],9.45 ± 0.44
8,TTATTATATAAATAAAAAAAAAAAAAAAAAAAAAAA [CACACA_negctrl_site1455],8.2 ± 0.35
9,ATATTTATATGAATCACACACAAAAAATATAGAGAT [CACACA_site7775],9.24 ± 0.4
10,ACTGTGGGAATAACCACACACACACCCACATATATA [CACACA_site3542],9.67 ± 0.26
11,AATATGTTTTTTAGATGTACAGATTAAATATTAAAA [XGTACX_site7308],8.25 ± 0.57
12,CATAAATACAAATATACACACATATATATATATATA [CACACA_site2633],9.87 ± 0.34
13,AAATCACAAAAAAAAAAAAAAATATATATATATATA [CACACA_negctrl_site10],9.48 ± 0.071
14,AAATTTAAAAATAAAGAACACACATATGTAAAATAT [CACACA_site9252],8.98 ± 0.45
15,AATTTCAATTTCTGTTGTACACTTTTTAATAGTAAA [XGTACX_site4085],8.68 ± 0.42
16,AAAAAAAAAAAAAAAACACACAAACATCAAATTACT [CACACA_site6950],8.98 ± 0.39
17,TAAATGAAAATATGTACACACTTGAAAATTTTTATG [CACACA_site5599],8.86 ± 0.33
18,TATATTATATATATATGTACATATTATTATATCTAA [XGTACX_site3835],8.67 ± 0.44
